# This is one part of the list.
# Assays:
# Assay in all cases: glycan array binding signal (z-score within array); higher = stronger binding
# Settings in all cases: glycan notation: IUPAC condensed, linker removed
# Gal(a1-4)Gal(b1-4)Glc = target: Gal(a1-4)Gal(b1-4)Glc
# In short: (§1)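 The binding signal is a Z-score computed within each array. Data were drawn from 3228 arrays in the Consortium for Functional Glycomics database, restricted to those with a known protein sequence. Scores were averaged over arrays of the same protein sequence at different concentrations or buffers, and over linkers, and negative values can be taken as non-binding.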
# Gal(a1-4)Gal(b1-4)GlcNAc = target: Gal(a1-4)Gal(b1-4)GlcNAc
# In short: as §1
# Gal(a1-4)GlcNAc = target: Gal(a1-4)GlcNAc
# In short: as §1
# Gal(a1-6)Glc = target: Gal(a1-6)Glc
# In short: as §1
# Gal(b1-2)Gal = target: Gal(b1-2)Gal
# In short: as §1
# Gal(b1-3)Gal = target: Gal(b1-3)Gal
# In short: as §1
# Gal(b1-3)GalNAc = target: Gal(b1-3)GalNAc
# In short: as §1
# [1] = target: Gal(b1-3)GalNAc(b1-3)Gal(a1-4)Gal(b1-4)Glc
# In short: as §1
# [2] = target: Gal(b1-3)GalNAc(b1-4)Gal(b1-4)Glc
# In short: as §1
# [3] = target: Gal(b1-3)GalNAc(b1-4)[Neu5Ac(a2-3)]Gal(b1-4)Glc
# In short: as §1
# Gal(b1-3)GlcNAc = target: Gal(b1-3)GlcNAc
# In short: as §1
# [4] = target: Gal(b1-3)GlcNAc(b1-3)Gal(b1-4)Glc
# In short: as §1
# [5] = target: Gal(b1-3)GlcNAc(b1-3)Gal(b1-4)GlcNAc
# In short: as §1
# [6] = target: Gal(b1-3)[Fuc(a1-4)]GlcNAc
# In short: as §1
# [7] = target: Gal(b1-3)[Fuc(a1-4)]GlcNAc(b1-3)Gal(b1-4)GlcNAc
# In short: as §1
# [8] = target: Gal(b1-3)[Fuc(a1-4)]GlcNAc(b1-3)Gal(b1-4)[Fuc(a1-3)]GlcNAc
# In short: as §1
# [9] = target: Gal(b1-3)[GlcNAc(b1-6)]GalNAc
# In short: as §1
# [10] = target: Gal(b1-3)[Neu5Ac(a2-6)]GalNAc
# In short: as §1
# [11] = target: Gal(b1-3)[Neu5Ac(a2-6)]GlcNAc(b1-6)Gal(b1-4)Glc
# In short: as §1
# [12] = target: Gal(b1-3)[Neu5Ac(b2-6)]GalNAc
# In short: as §1
# [13] = target: Gal(b1-4)GalNAc(a1-3)[Fuc(a1-2)]Gal(b1-4)GlcNAc
# In short: as §1
# [14] = target: Gal(b1-4)GalNAc(b1-3)[Fuc(a1-2)]Gal(b1-4)GlcNAc
# In short: as §1
# Gal(b1-4)Glc = target: Gal(b1-4)Glc
# In short: as §1
# Gal(b1-4)Glc6S = target: Gal(b1-4)Glc6S
# In short: as §1
# Gal(b1-4)GlcNAc = target: Gal(b1-4)GlcNAc
# In short: as §1
# [15] = target: Gal(b1-4)GlcNAc(b1-2)Man(a1-3)[Gal(b1-4)GlcNAc(b1-2)Man(a1-6)]Man(b1-4)GlcNAc(b1-4)GlcNAc
# In short: as §1
# [16] = target: Gal(b1-4)GlcNAc(b1-3)Gal(b1-4)Glc
# In short: as §1
# [17] = target: Gal(b1-4)GlcNAc(b1-3)Gal(b1-4)GlcNAc
# In short: as §1
# [18] = target: Gal(b1-4)GlcNAc(b1-3)Gal(b1-4)GlcNAc(b1-3)Gal(b1-4)GlcNAc
# In short: as §1
# [19] = target: Gal(b1-4)GlcNAc(b1-3)Gal(b1-4)[Fuc(a1-3)]GlcNAc(b1-3)Gal(b1-4)[Fuc(a1-3)]GlcNAc
# In short: as §1
# [20] = target: Gal(b1-4)GlcNAc(b1-3)GalNAc
# In short: as §1
# [21] = target: Gal(b1-4)GlcNAc(b1-3)[Gal(b1-4)GlcNAc(b1-6)]GalNAc
# In short: as §1
# [22] = target: Gal(b1-4)GlcNAc(b1-6)Gal(b1-4)GlcNAc(b1-6)GalNAc
# In short: as §1
# [23] = target: Gal(b1-4)GlcNAc(b1-6)GalNAc
# In short: as §1
# [24] = target: Gal(b1-4)GlcNAc(b1-6)[Gal(b1-3)]GalNAc
# In short: as §1
# Gal3S(b1-3)GalNAc = target: Gal3S(b1-3)GalNAc
# In short: as §1
# Gal3S(b1-3)GlcNAc = target: Gal3S(b1-3)GlcNAc
# In short: as §1
# [25] = target: Gal3S(b1-3)[Fuc(a1-4)]GlcNAc
# In short: as §1
# Gal3S(b1-4)Glc = target: Gal3S(b1-4)Glc
# In short: as §1
# Gal3S(b1-4)Glc6S = target: Gal3S(b1-4)Glc6S
# In short: as §1
# Gal3S(b1-4)GlcNAc = target: Gal3S(b1-4)GlcNAc
# In short: as §1
# Gal3S(b1-4)GlcNAc6S = target: Gal3S(b1-4)GlcNAc6S
# In short: as §1
# Gal3S6S(b1-4)GlcNAc = target: Gal3S6S(b1-4)GlcNAc
# In short: as §1
# Gal3S6S(b1-4)GlcNAc6S = target: Gal3S6S(b1-4)GlcNAc6S
# In short: as §1
# Gal4S(b1-4)GlcNAc = target: Gal4S(b1-4)GlcNAc
# In short: as §1
binder,measurement,setting,value
PA-IL (Pseudomonas aeruginosa) (protein) AWKGEVLANNEAGQVTSIIYNPGDVITIVAAGWASYGPTQKWGPQGDREHPDQGLICHDAFCGALVMKIGNSGTIPVNTGLFRWVAPNNVQGAITLIYNDVPGTYGNNSGSFSVNIGKDQS,glycan array binding signal (z-score),Gal(a1-4)Gal(b1-4)Glc,2.15
same,glycan array binding signal (z-score),Gal(a1-4)Gal(b1-4)GlcNAc,3.6
same,glycan array binding signal (z-score),Gal(a1-4)GlcNAc,3.15
same,glycan array binding signal (z-score),Gal(a1-6)Glc,1.53
same,glycan array binding signal (z-score),Gal(b1-2)Gal,1.65
same,glycan array binding signal (z-score),Gal(b1-3)Gal,-0.271
same,glycan array binding signal (z-score),Gal(b1-3)GalNAc,-0.363
same,glycan array binding signal (z-score),[1],-0.365
same,glycan array binding signal (z-score),[2],-0.363
same,glycan array binding signal (z-score),[3],-0.36
same,glycan array binding signal (z-score),Gal(b1-3)GlcNAc,0.348
same,glycan array binding signal (z-score),[4],-0.209
same,glycan array binding signal (z-score),[5],-0.258
same,glycan array binding signal (z-score),[6],-0.363
same,glycan array binding signal (z-score),[7],-0.12
same,glycan array binding signal (z-score),[8],-0.364
same,glycan array binding signal (z-score),[9],-0.365
same,glycan array binding signal (z-score),[10],-0.365
same,glycan array binding signal (z-score),[11],-0.365
same,glycan array binding signal (z-score),[12],-0.365
same,glycan array binding signal (z-score),[13],-0.364
same,glycan array binding signal (z-score),[14],-0.365
same,glycan array binding signal (z-score),Gal(b1-4)Glc,-0.364
same,glycan array binding signal (z-score),Gal(b1-4)Glc6S,0.529
same,glycan array binding signal (z-score),Gal(b1-4)GlcNAc,-0.059
same,glycan array binding signal (z-score),[15],-0.291
same,glycan array binding signal (z-score),[16],-0.205
same,glycan array binding signal (z-score),[17],0.15
same,glycan array binding signal (z-score),[18],-0.284
same,glycan array binding signal (z-score),[19],-0.355
same,glycan array binding signal (z-score),[20],-0.355
same,glycan array binding signal (z-score),[21],0.323
same,glycan array binding signal (z-score),[22],0.234
same,glycan array binding signal (z-score),[23],-0.219
same,glycan array binding signal (z-score),[24],0.192
same,glycan array binding signal (z-score),Gal3S(b1-3)GalNAc,-0.365
same,glycan array binding signal (z-score),Gal3S(b1-3)GlcNAc,-0.365
same,glycan array binding signal (z-score),[25],-0.364
same,glycan array binding signal (z-score),Gal3S(b1-4)Glc,-0.364
same,glycan array binding signal (z-score),Gal3S(b1-4)Glc6S,-0.365
same,glycan array binding signal (z-score),Gal3S(b1-4)GlcNAc,-0.365
same,glycan array binding signal (z-score),Gal3S(b1-4)GlcNAc6S,-0.365
same,glycan array binding signal (z-score),Gal3S6S(b1-4)GlcNAc,-0.365
same,glycan array binding signal (z-score),Gal3S6S(b1-4)GlcNAc6S,-0.364
same,glycan array binding signal (z-score),Gal4S(b1-4)GlcNAc,-0.365

# — the supplement of paper PMC8728848
